According to PubChem BioAssay AID1346428 (National Center for Advancing Translational Sciences (NCATS), 2018):
Several values for one entry are separate records, joined by “and”; a condition that tells them apart may be missing. Equal values may be shown once. Screen size: about 48,000 compounds; about 1,200 (2.5%) were called active. About 2% were inconclusive and are not listed.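 How the source made its calls: active means activation of at least 60% and not above a set upper limit (about 1 call in 100 departs from these limits); inconclusive means activation of 40% to 60%, or above that upper limit; inactive means activation under 40%.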 The list shows a part of the results.

molecular target: Probable G-protein coupled receptor 32 (Homo sapiens) (UniProt O75388); assay: qHTS for Agonists of Human Resolvin D1 Receptor DRV1; conditions: CHO-K1 GPR32 beta-arrestin PathHunter luminescence, 90 min; at 76.9 µM; hits give high values; zero percent set by DMSO-only wells; further: 0% is about no effect
UniProt O75388, sequence (O75388 whole entry, looked up): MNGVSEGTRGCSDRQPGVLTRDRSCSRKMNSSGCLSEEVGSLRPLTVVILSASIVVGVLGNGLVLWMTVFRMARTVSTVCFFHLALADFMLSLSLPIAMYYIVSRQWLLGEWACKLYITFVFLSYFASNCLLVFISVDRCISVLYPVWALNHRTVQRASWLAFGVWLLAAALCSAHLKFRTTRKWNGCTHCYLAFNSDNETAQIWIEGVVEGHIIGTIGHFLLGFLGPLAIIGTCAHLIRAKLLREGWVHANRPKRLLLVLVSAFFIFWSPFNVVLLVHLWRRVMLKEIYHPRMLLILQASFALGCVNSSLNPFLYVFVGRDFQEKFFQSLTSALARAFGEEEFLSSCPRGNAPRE
How it was run: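 Luminescent readout of beta-Gal complementation quantifies ligand-induced beta-arrestin association with GPR32 in CHO-K1 cells; 90 min compound incubation at 37 °C, detection 1 h at room temperature.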

activation, active:
CCCC(O)c1nc2ccccc2n1CCCOc1ccc(Cl)cc1 (stereo not given) 68.1%

activation, inactive:
COc1cccc(N2C(=O)C(CC(=O)Nc3cccc(F)c3)N(C3CCCC3)C2=O)c1 (stereo not given) -17.1%, Cn1ccnc1SCC(=O)Nc1cccc(Br)c1 -0.176%, Cc1cccc(N(C)C(=O)Cn2c(=O)oc3cc(S(=O)(=O)N4CCCCC4)ccc32)c1 -8.3%, COc1ccc(-c2nc3ccccc3o2)cc1NC(=O)Cc1ccc(Cl)cc1 -0.772%, Cc1ccc2oc(-c3ccc(C)c(NC(=O)/C=C/c4ccco4)c3)nc2c1 -8.55%, Cc1ccc2c(CC(=O)N(Cc3ccc(N(C)C)cc3)Cc3ccco3)coc2c1C -21.3%, O=C(NCc1ccccc1Cl)c1nnc(Cc2cccc(F)c2)o1 -4.51%, O=C1CSC2(C(=O)N(Cc3cccc(C(F)(F)F)c3)c3ccccc32)N1c1ccc(F)c(F)c1 (stereo not given) 4.47%, Cc1ccc(CNC(=O)Cn2ccn(-c3cccc(Cl)c3)c(=O)c2=O)cc1 -1.47%, N#Cc1ccccc1CSc1nnc(-c2ccc(Br)cc2)o1 0.536%, COc1cccc(-c2cc(C(F)(F)F)n3ncc(C(=O)OC(C)C)c3n2)c1 -6.98%, CCc1ccc(OCC(=O)N(Cc2ccc(C(C)C)cc2)C2CCS(=O)(=O)C2)cc1 (stereo not given) -39.3%, Cc1ccc(-c2noc(CNC(=O)c3ccc(C)c(Cl)c3)n2)cc1 5.09%, NC(=O)N1c2ccccc2C=Cc2ccccc21 6.53% and 1.58%, CCCOc1ccc(C2C(=O)N(C3CCC(C)CC3)CC(=O)N2CCc2ccccc2)cc1OC (stereo not given) -9.35%, O=C(Nc1ccccc1C(F)(F)F)c1ccc(F)c(S(=O)(=O)N2CCc3ccccc3C2)c1 -23.9%, CCN(CC)C(=O)C1=C(C)Nc2nc3ccccc3n2C1c1cccc(OC)c1 (stereo not given) -1.8%, CCOC(=O)N[C@H](Cc1c[nH]c2ccccc12)C(=O)Nc1cccc(Cl)c1 -18.5%, COc1ccc(OC)c(NC(=O)c2nc(S(=O)(=O)Cc3ccc(F)cc3)ncc2Cl)c1 -27.2%, CC(C)Oc1ccc(CNC(=O)C2=Cc3ccccc3OC2)cc1 0.191%, COc1ccc(C(=O)c2cn(CC(=O)Nc3cc(C)ccc3C)c3nc(C)ccc3c2=O)cc1 7.32%, CCOCCCN(Cc1ccco1)C(=O)c1cc2c(s1)-c1c(C)cccc1OC2 -33%, CC(C)n1nc(-c2cc3cc(O)ccc3[nH]2)c2c(N)ncnc21 0.456%, CCc1ccc(C2CC(=O)Nc3c2c(=O)n(C)c2ncnn32)cc1 (stereo not given) 5.61%, COc1ccc(N2CCN(C(CNC(=O)c3ccc(OC)c(OC)c3)c3cccnc3)CC2)cc1 (stereo not given) 0.864%, NC(=O)C1CCN(c2csc3ccc(F)cc3c2=O)CC1 -2.83%, CCn1c(CN2CCN(C)CC2)nc2cc(NC(=O)c3ccc([N+](=O)[O-])cc3)ccc21 4.24%, CCCCSc1nnc2c(n1)OC(c1ccc(Br)s1)Nc1ccccc1-2 (stereo not given) 29%, Cc1ccc(NC(=O)CN(Cc2ccccc2)S(=O)(=O)c2ccc3nc(C)sc3c2)c(C)c1 -14.3%, Cc1ccc(-c2nc(CSc3nnc(C)n4c3cc3occc34)c(C)o2)cc1 -3.92%, CCCCOC(=O)c1ccc(-n2nnc3c(sc4nc(C)cc(C)c43)c2=O)cc1 -5.49%, COc1ccc(CNC(=O)c2c(O)nc3c(C)cccn3c2=O)cc1 -0.362%, CN(C)c1ccc(CNC(=O)CCCN2C(=O)c3cccnc3Oc3ccc(Cl)cc32)cc1 -12.1%, CC(C)Cn1cc(NC(=O)N2CCN(c3cccc(C(F)(F)F)c3)CC2)c2ccccc2c1=O -33.9%, Cc1cccc2nc(-c3ccccn3)c(Nc3ccccc3)n12 -93.6%, CCOC(=O)C1=C(C)NC(C)=C(C(=O)OCC)C1c1c(F)c(F)c(F)c(F)c1F -22.1%, CCOc1ccc(-c2nc(-c3ccccc3)c(-c3ccccc3)[nH]2)cc1OCC -6.27%, COc1cc2nc(Nc3cccc(F)c3)nc(N)c2cc1OC 20.6%, Cc1cc(N2CCC(C)CC2)nc2ccc(NC(=O)Cc3ccccc3Br)cc12 11.2%, O=S(=O)(NCCc1nnc2ccc(SCc3ccccc3Cl)nn12)c1ccccc1 -27%, COc1ccc2cc1Oc1cc3c(cc1OC)CC[N+](C)(C)[C@H]3Cc1ccc(cc1)Oc1c(OC)c(OC)cc3c1[C@@H](C2)[N+](C)(C)CC3 22%, Cc1cc2nc(-c3cccc(NC(=O)c4cccc5ccccc45)c3)oc2cc1C -17.7%, O=C(/C=C/c1ccccc1)Nc1cc(-c2nc3cc(Cl)ccc3o2)ccc1Cl -6.75%, Cc1cccc(OCC(=O)Nc2cccc(OCc3cc(=O)n4cccc(C)c4n3)c2)c1 -14.6%, CC1CCCN(C(=O)c2cc3ccc4cccnc4c3[nH]2)C1 (stereo not given) -13.6%, CCOc1ccc(N2CC(NC(=O)c3ccco3)CC2=O)cc1 (stereo not given) -2.54%, COc1cccc(-n2ccnc2SCC(=O)Nc2c(C)cc(C)cc2C)c1 -25.9%, Cc1cc(C)c(NC(=O)Cn2c(=O)c3cccn3c3ccccc32)c(C)c1 -9.96%, CCCCNC(=O)c1ccc2c(c1)N(Cc1ccc(F)cc1)C(=O)c1ccccc1S2=O (stereo not given) -11.8%, CCSc1ncc(Cl)c(C(=O)N2CCN(c3ccccc3OC)CC2)n1 -3.68%, CCOCCCNC(=O)c1ccc(-n2c(-c3ccccc3)cc3c2CCCC3)cc1 -22.9%, Cc1ccc(NC(=O)/C=C\C(=O)N(c2ccc(C(C)C)cc2)C(C(=O)NCc2ccco2)c2ccc(Cl)cc2)cc1 (stereo not given) -21.5%, Cc1cccc(C(=O)OCc2cc(=O)n3ccsc3n2)c1 8.3%, COc1ccc(CNC(=O)C2CCN(S(=O)(=O)c3c(C)noc3/C=C/c3ccccc3F)CC2)cc1 -12.1%, COc1ccc(Cn2ccc3nc(C)c(C(=O)Nc4ccc(OC)cc4)cc3c2=O)cc1 -17.7%, Cc1ccc(-n2c(C)cc(C(=O)C(=O)Nc3ccccc3)c2C)c(C)c1 -5.17%, O=c1cc(-c2ccc(O)cc2)oc2cc(O)cc(O)c12 -20.5%, COc1ccc(CCNC(=O)CCn2c(=O)c3ccccc3n(Cc3ccccc3F)c2=O)cc1OC 7.45%, CC(C(=O)NCCSCc1cccc(Cl)c1)N(c1ccccc1)S(C)(=O)=O (stereo not given) 28.4%, CC(=O)Nc1nc2n(n1)C(c1ccc(F)cc1)C=C(c1ccc(Cl)cc1)N2 (stereo not given) -37.2%, CN(C(=O)CCc1nc(-c2ccccc2F)no1)c1ccc(Cl)cc1 -23.8%, O=S(=O)(c1ccc(OC(F)(F)F)cc1)N1CCC(c2nnnn2-c2ccc(F)cc2)CC1 -10.6%, Cc1ccc(NC(=O)c2nc(S(C)(=O)=O)ncc2N(Cc2ccc(C(C)(C)C)cc2)Cc2ccco2)cc1C -13.7%, CCc1cccc(NC(=O)C2CCCN(c3ncnc4onc(-c5ccc(F)cc5)c34)C2)c1 (stereo not given) -7.17%, COc1cc(C(=O)NCC(c2ccc3c(c2)OCO3)N2CCOCC2)cc(OC)c1OC (stereo not given) -14.8%, CCOc1ccc(-c2cc3c(=O)n(CC(=O)NCc4ccc(C)cc4)ccn3n2)cc1 11.9%, COc1ccc(-c2noc(CSCC(=O)Nc3cc(OC)c(OC)c(OC)c3)n2)cc1OC -7.79%, CCn1cc(C(=O)OCC(=O)Nc2ccc(C)c(Cl)c2)c(=O)c2ccc(C)nc21 2.14%, CCN1CCSc2ccc(C(=O)NCc3ccc(OC(C)C)cc3)cc21 -17.5%, CCOC(=O)Cc1ccc(NC(=O)NCc2c(-n3cccc3)sc3c2CCCC3)cc1 7.53%, COc1ccc(N(Cc2cc3ccccc3[nH]c2=O)C(=O)c2cccc(Cl)c2)cc1 -26.5%, CCn1ccc(NS(=O)(=O)c2ccc(N)cc2)nc1=O 40.1%, Cc1ccc(NC(=O)c2c(C)cc(C)nc2SCC(=O)Nc2ccc(Br)cc2)cc1 -20.6%, CC(=O)N1c2ccccc2CC1C(=O)N1CCN(c2ccccc2)CC1 (stereo not given) -11.3%, CCc1nc2ccc(C(=O)NCCc3ccccc3OC)cc2nc1CC -20%, O=C(CS(=O)(=O)c1cccc2nsnc12)Nc1ccccc1Cl -1.24%, CCCCN1CC(c2nc3ccccc3n2CCCCOc2cc(C)ccc2C)CC1=O (stereo not given) 14%, Cc1ccc(-c2csc(-c3nc(-c4ccc(Br)s4)cs3)n2)cc1 9.4%, CCN(CC)CCNC(=O)Cn1ncc2c3ccccc3n(Cc3ccc(Cl)cc3)c2c1=O -13.5%, Cc1ccc(NC(=O)CSc2nc(=O)n(Cc3cccnc3)c3c2CCC3)cc1F -1.12%, COc1ccc(NC(=O)Cn2nnc(C(=O)NCc3cccs3)c2N)cc1 -1.25%, COc1ccc(Cc2nc3ccc(C(=O)NCc4ccccc4C)cc3o2)cc1 -27.9%, COc1ccc(NC(=O)CN2C(=O)CC(c3ccc(C)c(C)c3)=Nc3ccccc32)cc1OC -11.3%, CCC(CC)C(=O)Nc1ccc2nc(SCC(=O)N3CCCC3)sc2c1 -2.74%
